Test results published in PubChem BioAssay (NCI).
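Protocol summary: plate cells (96-well), add compound at 5 concentrations, incubate 48 h, interpolate endpoints linearly. GI50: concentration for 50% inhibition of growth. TGI: concentration producing complete growth inhibition.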

Test system: NCI-H322M lung
Assay: NCI tumour cell line growth inhibition, 48 h

With `CC(=O)Oc1ccccc1C(=O)Nc1ccc(C(=O)/C=C/c2ccncc2)cc1` the GI50 was over 100 µM and the TGI was over 100 µM.

`CC(C)(C)Nc1nc2c(OCCc3ccccc3)cccn2c1-c1ccccc1Cl` gave a GI50 of 8.45 µM and a TGI of 22.4 µM.

Compound `CCN(CC)c1ccc(/C=N/NC(=O)c2ccc(S(N)(=O)=O)cc2)cc1` has a GI50 of 0.343 µM and a TGI of 25.5 µM.
